# Measurements reported in the RNAGym collection of RNA variant scans (doi:10.7554/elife.90254).
# The source gives no read counts; variants with many changes may rest on few reads.
# B1: LINE1-mini (parent)
# chain: GGCAGAGCUCAACACAGCGUGGCAAAGUGGCUGUGGCUAGACUGCC
# Variants of: B1
# Assay: self-cleavage, relative activity (ratio to wild type); higher = more cleavage; in vitro, sequencing; the parent is a self-cleaving ribozyme
row,Variant,self-cleavage
1,GGCACAGCGCAACACAGCGUGGCAAAGUGGCUGUGCCUAGACUGCC [G5C U9G G36C],0.1
2,GGCACAGCUCAACACAGCGUGGCAAAGUGGCUCUGGCUCGACAGCC [G5C G33C A39C U43A],0.05
3,GGCACAGCUCAACACAGCGCGGCAAAGUGGCUGUGGCUACACUGCC [G5C U20C G40C],0.08
4,GGCACAGCUCAACACAGCGUGGCAAAGUGACUGUGGCUAAACUGCC [G5C G30A G40A],0.09
5,GGCACAGCGCAACACCGCGUGGCAAAGUGGCUGUGGCUAGACUGCC [G5C U9G A16C],0.09
6,GGCACAGCUCAACACAGCGUAGCUAAGUGGCUGUAGAUAGACUGCC [G5C G21A A24U G35A C37A],0.04
7,GGCACAGCUCAACACAGCGUUGCAAAGUGGCUGUGGAUAGGCUGCC [G5C G21U C37A A41G],0
8,GGCACAGCUCAACACAGCGUGGCAAAAUGGCAGUGGCUAGACUGCA [G5C G27A U32A C46A],0.02
9,GGCACAGCUCAACACAGCGUGACAAAGUGGCUGUGGGUAGGCUGCC [G5C G22A C37G A41G],0.03
10,GGCACAUCUCAACACAGCGUGGCAAAGUGGCUGUGGCGAGAAUGCC [G5C G7U U38G C42A],0.01
11,GGCACAUCUCAACACACCGUGGCAUAGUGGCUGUGGCUAGACUGGC [G5C G7U G17C A25U C45G],0.11
12,GGCACAGCUCAACACAGCGUGGCAAAGUGGCUGUUGCUAGACAGCC [G5C G35U U43A],0.03
13,GGCACAGCUCAACACAGCGGGGCAAAUUUGCUGUGGCUCGACUGCC [G5C U20G G27U G29U A39C],0.02
14,GGCACAGCUCAACACAGCUUGGCAAAGUGGCCGUGGCUAGACUUCA [G5C G19U U32C G44U C46A],0.14
15,GGCACAGCUCAACACAUCGUGGCAAAGUGGCUUUGGCUAGACUGCC [G5C G17U G33U],0.08
16,GGCACAGCCCAACACAGCGUAGCAAAGUGGCUGUGUCUAGACUGCC [G5C U9C G21A G36U],0.02
17,GGCACAUCUCAACACAGCGCGGCAAAGUGGAUGUGGCUAGACUGCA [G5C G7U U20C C31A C46A],0.02
18,GGCACAACUCAACACAGAGUAGCAAAGUGGCUGUGGCUAUACUGCC [G5C G7A C18A G21A G40U],0.09
19,GGCACAGCACCACACAGCGUGGCAAAGUGGCUGUGGCUAGACUGCC [G5C U9A A11C],0.01

row,Variant,self-cleavage
1,GGCACAGCUCAACACAGCGUGCCAAAAUGACUGUGGCUAGACAGUC [G5C G22C G27A G30A U43A C45U],0
2,GGCACAGCGCAACACAGCGUCGCAAAGUGGCUGUGGCUAGACUGCC [G5C U9G G21C],0.03
3,GGCACAUCUCAACACAGCGUUGCAAAGUGGCUGUGGCUAGACUGCC [G5C G7U G21U],0.04
4,GGCACAGCCCAACACAGCGUGGCAUGUUGGCUGUGGCUAGACUGCC [G5C U9C A25U A26G G27U],0.03
5,GGCACAGCUCAACACAGCGUGGCAAAGUAGCUAUGGCUAGACUGCC [G5C G29A G33A],0.06
6,GGCACACCUCAACACAGCGUGGCAAAGUGGCGGUGCCUAGACUGCC [G5C G7C U32G G36C],0.01
7,GGCACAGCUCAACACAGCUUGGCAAAGUGGCUGUUGCUAGACUGCC [G5C G19U G35U],0.04
8,GGCACAGCUCAACACAGCCUGGCAAAGUGGCUGUGGCUAGACUGGC [G5C G19C C45G],0.03
9,GGCACAGCUCAACACAGCGUGGCAAAGUGGCUAAGGCUAGACUGCC [G5C G33A U34A],0.07
10,GGCACAGCUCAACACAGCGUGGCAAAGUUGCUGUGGCUAUACUGCC [G5C G29U G40U],0.08
11,GGCACAGCUCAACACAGCAUGGCAAACGCGCUAUUGCUAGAUUGCC [G5C G19A G27C U28G G29C G33A G35U C42U],0.01
12,GGCACAGCUCAACACAGCGUGGCAAAGUAGCUGUGGCUAGACUCCC [G5C G29A G44C],0.07
13,GGCACAGCUCAACACAGCGUGGCAAAGUGGCUCUGGCUAGAAUGCC [G5C G33C C42A],0.06
14,GGCACAGCUCAACACAGCGUGGCAAAGUGACUGUGGCUAGAAUGCC [G5C G30A C42A],0.02
15,GGCACAGCUCAACACAGCAUGGCAAAGGGGCUGUGGCUAGACUGCC [G5C G19A U28G],0.01
16,GGCACAGCUCAACACAGCGUGGCAAAGUUGCUGUGGCUAGACUAGA [G5C G29U G44A C45G C46A],0.02
17,GGCACAAUCCAACACAGCGUGGCAAAGUGCCUGUGGCUAGACUGCC [G5C G7A C8U U9C G30C],0.02
18,GGCACAGCUCAACACACCGCGGCAAAGUGGCCGUGGCUAGACGGCC [G5C G17C U20C U32C U43G],0.02
19,GGCACAGCUCAACACAGCGUGGCAAAGUUGCUGUGGAUAGACUGCC [G5C G29U C37A],0.05

row,Variant,self-cleavage
1,GGCACAACUCAACACAGCGUGGCAAAGUGGGUGUGGCUAGACUGCC [G5C G7A C31G],0.03
2,GGCACAGCUCAACACAGCGUGGCAAAGUGACUGUGGAUAGACUGCC [G5C G30A C37A],0.05
3,GGCACAGCUCAACACAGCCUAGCAAAGUGGCUGUGGCUACCCUGCC [G5C G19C G21A G40C A41C],0.02
4,GGCACAGCUCAACACAGCGUGGCAAAGUGUCUGUGGCGAGACUGCC [G5C G30U U38G],0.07
5,GGCACAGCUCAACACAGCGUGCCAAAGUGGCUGUUGCUAGACUGCC [G5C G22C G35U],0.05
6,GGCACAACUCAACACAGCGUGGCAAAGUGGCUUUGGCUAGACUGCC [G5C G7A G33U],0.37
7,GGCACAGCACAACACAGCGUGGGAAAGUGGCUGUGGCUGGACUGGC [G5C U9A C23G A39G C45G],0.02
8,GGCACAGCUCAACACAGCGUAGCACAGUGGCUGUGGCUAGACUGCA [G5C G21A A25C C46A],0.05
9,GGCACAGCUCAACACAGCGUGAUCAAGUGGCUGUAGCUAGACUGUC [G5C G22A C23U A24C G35A C45U],0.32
10,GGCACAGCUCAACACAGCGUCGCAAAGUAGCUGUGGCUAGACUGCU [G5C G21C G29A C46U],0.1
11,GGCACAGCUCAACACAGCGGUGGAAAGUGGCUGUGGCUAGACUGCC [G5C U20G G21U C23G],0.02
12,GGCACACCUCAACACAGCGUGGCAAUGUGGCUGUGGCUAGACUGCC [G5C G7C A26U],0.03
13,GGCACAGCUCAACACACCGUGGCAUAGUGGCUGUGGCUAGACAGCC [G5C G17C A25U U43A],0.03
14,GGCACAGCUCAACACAUCGUGGCAAAUUGGCAGCGGCUAGAAUGCC [G5C G17U G27U U32A U34C C42A],0
15,GGCACAGCUCAACACAGCGUGGCAAAGUGACUGGGGCUAGACGGCC [G5C G30A U34G U43G],0
16,GGCACAGCUCAACACAGCGUGGCAAACUGGCUGUGGCUCGACUGCC [G5C G27C A39C],0.05
17,GGCACAGCUCAACACAGCGUGGCAAAGUGACUGUGGCUGGACUGCC [G5C G30A A39G],0.02
18,GGCACAGCUCAACACAGCAUGGCAAAGUGGCUGUGGAUAGUCUGCC [G5C G19A C37A A41U],0.08
